From PubChem BioAssay AID360 (National Center for Advancing Translational Sciences (NCATS), 2006)
About 550 (1.1%) of roughly 48,000 compounds were called active. Inconclusive results (about 4%) are left out. No stated cut-off is given here; in the data, active means potency below about 15 µM; inconclusive means mostly about 16 µM to 33 µM; inactive means weaker than that. Some of the results follow.

These compounds were tested against Lysosomal acid glucosylceramidase (Homo sapiens) (UniProt P04062) (assay: Glucocerebrosidase). Details: purified enzyme, resorufin glucoside fluorescence (screen aimed at inhibitors), 20 min.
In short: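 Wild-type enzyme at 0.2 nM final in 50mM citric acid/KH2PO4, 10mM sodium taurocholate, 0.01% tween-20, pH 5.9, with resorufin beta-D-glucopyranoside at 30 uM final. Compounds titrated, 20 min at RT, red fluorescence read; AC50 from titration.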
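Further: the screen sought inhibitors.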
Potency means the concentration at half of the fitted maximal effect.

Chain of UniProt P04062 (P04062 whole entry, looked up): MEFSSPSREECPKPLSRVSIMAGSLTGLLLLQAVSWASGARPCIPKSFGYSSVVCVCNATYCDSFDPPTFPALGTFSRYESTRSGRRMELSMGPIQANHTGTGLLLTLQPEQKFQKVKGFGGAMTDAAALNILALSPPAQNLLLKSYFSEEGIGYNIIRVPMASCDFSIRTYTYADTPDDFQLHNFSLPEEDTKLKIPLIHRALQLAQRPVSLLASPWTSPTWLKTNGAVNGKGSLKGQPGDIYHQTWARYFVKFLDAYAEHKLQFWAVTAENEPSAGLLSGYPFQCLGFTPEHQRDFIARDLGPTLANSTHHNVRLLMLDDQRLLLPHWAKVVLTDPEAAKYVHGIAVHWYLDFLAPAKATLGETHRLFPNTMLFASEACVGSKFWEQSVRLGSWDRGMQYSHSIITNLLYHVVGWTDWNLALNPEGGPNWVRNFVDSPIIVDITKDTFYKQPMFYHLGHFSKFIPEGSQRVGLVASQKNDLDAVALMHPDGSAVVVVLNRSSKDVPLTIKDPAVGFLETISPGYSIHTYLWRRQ

Potency, inactive:
O=C(COc1ccc(Cl)cc1)OCC(=O)N1CCCC1 > 76.9 µM, CCN(CC)c1nc(-c2nn[nH]n2)nc(N(CC)CC)n1 > 76.9 µM, CCOC(=O)Cc1csc(NC(=O)c2ccoc2C)n1 > 76.9 µM, CCn1c(SCC(=O)Nc2cc(OC)c(OC)c(OC)c2)nnc1-c1cccs1 > 76.9 µM, CS/C(=N\S(=O)(=O)c1cccs1)Nc1ccc(N2CCOCC2)cc1 > 76.9 µM, Cc1coc(C)c1C(=O)CC1(O)C(=O)Nc2cc(Cl)cc(Cl)c21 (configuration not stated) > 76.9 µM, ONC=Nc1cccc2nonc12 > 76.9 µM, CCN(CC(=O)NCc1cccs1)S(=O)(=O)c1cccc(C(C)=O)c1 > 76.9 µM, COC1(OC)N=C(N)C2(C#N)C(c3ccc(C)cc3)C12C#N (configuration not stated) > 76.9 µM, Cn1cc(Cl)c(-c2nc3ccccc3[nH]2)n1 > 76.9 µM, COC(=O)c1ccccc1NC1OC(=O)c2ccccc21 (configuration not stated) > 76.9 µM, N=C1C(c2ccccc2)=C(O)CN1c1ccccc1N1CCOCC1 > 76.9 µM, CS(=O)(=O)N(CC(=O)Nc1ccccc1C(=O)N1CCOCC1)c1ccc2c(c1)OCO2 > 76.9 µM, CCN(CC)C(=O)C1CC(c2ccc(OC)cc2)=NO1 (configuration not stated) > 76.9 µM, COc1ccccc1C1CC(c2ccc(Cl)cc2)Nc2ncnn21 (configuration not stated) > 76.9 µM, CC(=O)Nc1ccc(S(=O)(=O)N2CCC(NC(C)=O)(c3cccc(F)c3)CC2)cc1 > 76.9 µM, O=C(CN1C(=O)CCS(=O)(=O)c2ccccc21)NCc1ccccc1 > 76.9 µM, CCOC(=O)C(C)Sc1ccc2nnc(-c3ccc(F)cc3)n2n1 (configuration not stated) > 76.9 µM, COc1ccc(C(O)c2nc3ccccc3s2)cc1 (configuration not stated) > 76.9 µM, CCN(CC)c1ccc(NC(=O)c2ccco2)c(C)c1 > 76.9 µM, O=C(O)c1cccc(COc2ccccc2Cl)c1 > 76.9 µM, CN1CCN(CC(=O)Nc2ccc(Cl)cc2Cl)CC1 > 76.9 µM, COc1ccccc1Oc1coc2cc(OC(=O)N3CCOCC3)ccc2c1=O > 76.9 µM, COc1cccc(C(=O)NCc2nnc(SCC(=O)Nc3nccs3)n2-c2cccc(C)c2)c1 > 76.9 µM, CC(=O)C1=C(O)C(=O)N(Cc2ccco2)C1c1ccc2c(c1)OCO2 (configuration not stated) > 76.9 µM, CN(C)C(CNC(=O)c1cccnc1Sc1ccccc1)c1ccco1 (configuration not stated) > 76.9 µM, CC(=O)c1cccc(NC(=O)N2CCCc3ccccc32)c1 > 76.9 µM, O=C(OCC1COc2ccccc2O1)c1c(F)cccc1F (configuration not stated) > 76.9 µM, CCc1ccccc1NC(=O)CSc1nnc([C@@H]2CCCN2C(=O)OC(C)(C)C)o1 > 76.9 µM, CCCCSc1nnc(-c2ccc(NC(=O)CC)cc2)n1C > 76.9 µM, CC(=O)N(Cc1cccnc1)Cc1cc2ccc(C)cc2[nH]c1=O > 76.9 µM, CSc1nnnn1-c1ccc(C(=O)OCC(=O)N2CCOCC2)cc1 > 76.9 µM, CC1Oc2ccccc2N(CC(=O)N2CCc3ccccc32)C1=O (configuration not stated) > 76.9 µM, CCn1c(=O)cc(OCC(=O)N2CCN(c3cccc(C(F)(F)F)c3)CC2)c2ccccc21 > 76.9 µM, COc1ccccc1C1NC(=O)NC(C)=C1C(C)=O (configuration not stated) > 76.9 µM, CC(C)n1nc(C(=O)NCCc2ccc(S(N)(=O)=O)cc2)c2ccccc2c1=O > 76.9 µM, Cc1nn(-c2ccccc2)c(Cl)c1C(=O)N1CCN(c2ncnc3c2cnn3-c2ccccc2)CC1 > 76.9 µM, Brc1ccc(-c2nnc3sc(CN4CCN(c5ccccc5)CC4)cn23)cc1 > 76.9 µM, CCN(Cc1cc2ccccc2[nH]c1=O)C(=O)c1cccnc1 > 76.9 µM, Cc1cccc(NC(=O)N2CCC(NC(=O)c3ccccc3C)CC2)c1 > 76.9 µM, O=C(NC1CC1)c1ccc(-c2nc3ccccc3s2)s1 > 76.9 µM, Cc1ccc(C(=O)c2coc3ccc(OCC(=O)O)cc23)cc1 > 76.9 µM, Cc1nnc(SCc2ccon2)n1-c1ccccc1 > 76.9 µM, Cn1c(NCC2CCCO2)nc2c1c(=O)n(Cc1ccccc1)c(=O)n2C (configuration not stated) > 76.9 µM, COc1ccccc1NC(=O)CSc1nnnn1-c1ccc2c(c1)OCO2 > 76.9 µM, c1ccc2c(c1)NC(CN1CCOCC1)CO2 (configuration not stated) > 76.9 µM, COc1cccc(N2C(=O)C3CCCN3C2c2ccc(F)cc2)c1 (configuration not stated) > 76.9 µM, Cc1cc(C(=O)CSc2nncs2)c(C)n1-c1ccc2c(c1)OCO2 > 76.9 µM, CC(NC(=O)Cc1cccs1)c1ccc2c(c1)OCO2 (configuration not stated) > 76.9 µM, O=C(c1cnn2c(C(F)F)cc(C3CC3)nc12)N1CCc2ccccc2C1 > 76.9 µM, NC(=O)C1(N2CCCCC2)CCN(C(=O)CSc2nc3ccccc3[nH]2)CC1 > 76.9 µM, Cc1ccnc(SCCn2c(Br)nc3c2c(=O)n(C)c(=O)n3C)n1 > 76.9 µM, Cc1cc(-c2ccccc2)c2c3c(cn2n1)c(=O)n(C)c(=O)n3C > 76.9 µM, CCOc1cc(-n2cnnn2)c(OCC)cc1NC(=O)c1cnccn1 > 76.9 µM, CCOC(=O)c1[nH]c(C)c(C(=O)NCCc2ccc(OC)cc2)c1C > 76.9 µM, OC(Cn1ccnc1)c1ccc(Cl)cc1Cl (configuration not stated) > 76.9 µM, COCC(=O)N(C)C1(c2nnnn2CCOC(=O)Nc2cccc3ccccc23)CCCC1 > 76.9 µM, CCCc1cc(=O)[nH]c(NCc2ccc(Cl)cc2)n1 > 76.9 µM, COC(=O)c1cc(C)sc1NC(=O)c1cccnc1 > 76.9 µM, O=C(C1CCN(S(=O)(=O)c2ccc(F)cc2)CC1)N1CC=C(c2ccccc2)CC1 > 76.9 µM, CCCCC(=O)Nc1cc(C)c2c(=O)oc3ccccc3c2n1 > 76.9 µM, COC(C)(C)[C@]12CC(O)(c3ccccc3)ON1[C@H]1CCCCC1N2O (some centres not stated) > 76.9 µM, COc1ccc(NC(=O)c2cc(C(C)C)on2)cc1OC > 76.9 µM, CSc1ccc(S(=O)(=O)NC2CCCCCC2)cc1, CCOC(=O)Cc1csc(NC(=O)c2csc3c2CCCC3)n1 > 76.9 µM, O=C(O)c1cc(-c2ccccc2)n(-c2ccccc2C(=O)O)n1 > 76.9 µM, Cc1ccc(S(=O)(=O)n2nc(OC(=O)c3cccs3)cc2N)cc1 > 76.9 µM, CCCn1c(CCC(=O)O)ccc1-c1ccc(F)cc1 > 76.9 µM, O=S(=O)(c1ccccc1)N1CCN(c2ncnc3sc(-c4ccccc4)cc23)CC1 > 76.9 µM, O=C(O)c1ccc(COc2c(F)c(F)cc(F)c2F)o1 > 76.9 µM, CN(C(=O)COc1ccccc1)c1nnc(-c2ccncc2)s1 > 76.9 µM, c1ccc(-n2nnc3cnccc32)cc1 > 76.9 µM, Cc1ccc(NC(=O)c2nnn(-c3cc(C)cc(C)c3)c2N)cc1 > 76.9 µM, CC(NC(=O)Nc1ccccn1)N1C(=O)C2C3C=CC(C3)C2C1=O (configuration not stated) > 76.9 µM, COc1ccc(CNc2nc3c(c(=O)n(Cc4ccc(Cl)cc4)c(=O)n3C)n2C)cc1 > 76.9 µM, CCCCNC(=O)c1c(C)cc(=O)oc1C > 76.9 µM, CN(C)S(=O)(=O)c1cccc(C(=O)N2CCN(Cc3ccccc3)CC2)c1 > 76.9 µM, COc1cc(NC(=O)c2cccs2)c(C(=O)OCC(=O)NCc2ccco2)cc1OC > 76.9 µM, O=C(O)C1C2C=CC(C2)C1C(=O)Nc1ccc(C(=O)N2CCCCC2)c(Cl)c1 (configuration not stated) > 76.9 µM, CCOc1ccc(NC2=NCC(=O)N2CCc2ccccc2)cc1 > 76.9 µM, Cc1ccc2c(c1)cc(CN(Cc1cccs1)C(=O)c1ccco1)c1nnnn12 > 76.9 µM, O=C(Nc1cnn(Cc2ccc(F)cc2)c1)c1cc2nc(-c3ccco3)cc(C(F)(F)F)n2n1 > 76.9 µM, Cn1c(-c2ccc(F)cc2)cnc1SCC(=O)N1CCCCC1 > 76.9 µM, CC(C)CCNC(=O)C1CCN(c2nc3ccccc3o2)CC1 > 76.9 µM, COc1ccccc1CNC(=O)CCS(=O)(=O)c1ccc2c(c1)CCCN2C(C)=O > 76.9 µM, Clc1ccccc1Cn1nnc(-c2cccs2)n1 > 76.9 µM, Cc1occc1C(=O)Nc1cccc(Cn2cccn2)c1 > 76.9 µM, c1ccc(CCn2nnnc2CN2CCCc3ccccc32)cc1 > 76.9 µM, Cc1ccc2c(CC(=O)NC3=NCCS3)coc2c1 > 76.9 µM, Cc1cc(C)cc(-n2nnc(C(=O)NCc3ccc4c(c3)OCO4)c2N)c1 > 76.9 µM, CCOC(=O)CNC(=O)CSc1nc(NCc2ccccc2)nc(N(C)C)n1 > 76.9 µM, CCOC(=O)c1c(C)noc1CP(=O)(c1ccccc1)c1ccccc1 > 76.9 µM
